Data on 60 compounds can be found in PubChem BioAssay AID485344 (National Center for Advancing Translational Sciences (NCATS), 2010).

Among all 340,000 compounds or so, about 6,900 (2%) were called active. Rule as the data show it: active = inhibition above about 30%; inactive = below that, where a call was filed. This is a selection; strong and weak results do not stand in their true shares. Where no call is shown, the source filed none.

UniProt P14416, sequence (P14416 whole entry, looked up): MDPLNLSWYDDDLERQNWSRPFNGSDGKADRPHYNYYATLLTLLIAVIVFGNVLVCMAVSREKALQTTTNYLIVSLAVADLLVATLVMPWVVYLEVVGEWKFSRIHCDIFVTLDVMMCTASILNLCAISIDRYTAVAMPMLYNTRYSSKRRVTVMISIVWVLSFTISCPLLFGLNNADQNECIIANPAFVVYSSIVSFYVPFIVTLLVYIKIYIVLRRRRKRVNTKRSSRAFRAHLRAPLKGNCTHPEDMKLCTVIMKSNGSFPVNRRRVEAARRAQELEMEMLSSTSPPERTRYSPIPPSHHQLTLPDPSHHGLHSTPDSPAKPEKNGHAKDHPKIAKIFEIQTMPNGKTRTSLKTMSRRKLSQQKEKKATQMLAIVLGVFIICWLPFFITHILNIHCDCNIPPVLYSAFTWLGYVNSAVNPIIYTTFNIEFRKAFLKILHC

For this experiment, the target named is D(2) dopamine receptor (Homo sapiens) (UniProt P14416). Nature of the experiment: HTS Assay for Allosteric Antagonists of the Human D2 Dopamine Receptor: Primary Screen for Antagonists. Also: 0% is about no effect. The settings on record: HEK293 TREx D2 cells, calcium flux, dopamine EC80; at 10 µM; stronger effect = higher value. Put shortly:
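Cells plated overnight at 30 C with tetracycline; no-wash calcium dye, 30–90 min RT; 10 s baseline; compound pinned; 180 s read; EC80 dopamine added; another 180 s read.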
For orientation: Calcium flux is commonly read through the fluorescence of an indicator in the cells.
On to `COc1ccc(CCNC(=O)c2ccc(Cn3c(=O)c4cccn4c4cccnc43)cc2)cc1OC`, for which the inhibition (usually the drop in the measured response relative to a control, in per cent) is 9.25%. To `Cc1cc(C(=O)N2CCN(c3ccccc3F)CC2)c2c(C)nn(-c3ccccc3)c2n1` belongs 0.489%.

In the case of `Cc1cc(C)n2nc(CNS(=O)(=O)c3cccc(Cl)c3)nc2n1`, the inhibition came to 0.743%.

In the case of `CCC(C)NC(=O)c1ccc(CNS(=O)(=O)c2ccc3c(c2)C(C)(C)C(=O)N3C)cc1` (stereo not given), the inhibition turned out to be 11.6%. With `Cc1cc(C)c2oc(-c3cccc(NC(=O)c4cccc(F)c4)c3C)nc2c1` the figure was -6.85%; with `Cc1cccc(NC(=O)CSc2nc(-c3cccs3)nc3cc(=O)[nH]n23)c1`, 5.03%; with `Cc1cccc(-c2nc3c4ccccc4nc(N4CCN(c5cccc(Cl)c5)CC4)n3n2)c1`, -8.99%. For the compound `COc1ccc(-c2c3c(nc4sc(C(=O)Nc5cccc(OC)c5)c(N)c24)CC(C)(C)CC3=O)cc1`, the inhibition was -4.97%.

Take `CCc1ccccc1NC(=O)Cn1c(=O)n(CCc2ccccc2)c(=O)c2sc3ccccc3c21`: the inhibition came out at 0.907%. With `O=C(Nc1ccccc1Cl)N1CCC2(CC1)Oc1ccccc1C(=O)N2Cc1ccc(F)cc1`, the inhibition turned out to be 11.2%. With `O=C(Nc1ccc(Br)cc1)c1ccc2ncsc2c1` the figure was active: 36.2%; with `CC(=O)c1ccc(NC(=O)c2ccc(-c3nc(CSc4ccc(C)cc4)c(C)o3)cc2)cc1`, -0.046%; with `CCc1ccc(NC(=O)c2cnc3c(-c4ccccc4)c(C)nn3c2C)cc1`, 1.83%. On to `COc1cccc(Cn2c(C)c(CNCc3cccc(C)c3)c(C(=O)O)c2C)c1`, for which the inhibition is -6.58%.

In the case of `COc1ccc(NC(=O)c2ccc(-c3ccccc3Cl)o2)cc1`, the inhibition is active: 41.8%. Turning to `COc1ccc(C2CC(=O)c3cc(-c4nc(-c5cccc([N+](=O)[O-])c5)cs4)c(=O)n(-c4cccc(C)c4)c3C2)cc1` (stereo not given), the inhibition was -0.488%. To `Cc1ccc(NC(=O)CSc2nc3ccc(NC(=O)c4ccco4)cc3s2)cc1` belongs 9.32%; to `Cc1ccc(NC(=O)CSc2nc(=O)n(Cc3ccccn3)c3c2CCC3)cc1F`, -18.3%. To `COc1cc(C(=O)NCc2ccc3c(c2)CCN3C(=O)c2ccc(Cl)cc2)cc(OC)c1OC` belongs 17.3%; to `COC(=O)c1c(NC(=O)Cc2coc3cc(C)cc(C)c23)sc2c1CCC2`, -0.974%; to `COCCNC(=O)c1c(NC(=O)c2cc(=O)c3cc(C)cc(C)c3o2)sc2c1CCCC2`, -2.74%. With `Cc1ccc(S(=O)(=O)NC(=O)c2ccc(Br)o2)c(C)c1` the figure was active: 31.5%; with `Cc1ccc(C2NC(=O)c3n[nH]c(-c4cccs4)c32)cc1` (stereo not given), 1.88%. In the case of `Cc1ccc(Cl)cc1N1CCN(C(=O)Cn2nc(C)c3sc4ccccc4c3c2=O)CC1`, the inhibition was -3.22%. To `O=C(Nc1cccc(C(=O)OCc2cc(=O)n3c4c(sc3n2)CCCC4)c1)c1cccc(F)c1` belongs 9.9%. In the case of `CCC(C)NC(=O)CCSc1nc(-c2ccc3c(c2)OCO3)cc(C(F)(F)F)n1` (stereo not given), the inhibition was determined as 1.71%.

On to `COc1ccc(NC(=O)CCS(=O)(=O)c2nc(-c3ccc4c(c3)OCO4)cc(C(F)(F)F)n2)cc1OC`, for which the inhibition came out at 7.82%. With `COc1ccccc1CNC(=O)CCn1c(=O)c2ccccc2n(CC(=O)Nc2cc(Cl)ccc2C)c1=O` the figure was 5.84%; with `CCc1cccc(NC(=O)CSc2ncc3c(n2)-c2cc(Cl)ccc2N(C)S3(=O)=O)c1`, 9.2%. To `CCOC(=O)c1ccc(N2C(=O)c3[nH]nc(-c4ccc(OC)cc4)c3C2c2cccc(O)c2)cc1` (stereo not given) belongs 18.1%; to `COc1ccccc1NC(=O)Cn1nnc(C(=O)NCc2cccs2)c1N`, -8.14%. With `O=c1cc(COc2ccccc2Cl)nc2scc(-c3ccccc3)n12` the figure was -7.92%; with `O=C(Cn1nc(Cc2cccnc2)c2ccccc2c1=O)Nc1ccc(F)c(Cl)c1`, 8.01%; with `COc1cccc(CNC(=O)c2sc3ncccc3c2-n2c(C)ccc2C)c1OC`, 12.8%. As to `COc1ccccc1C1CCN(Cc2cccc3ccccc23)CC1`, the inhibition is active: 81.6%. To `COc1ccc(C(=O)NCC(c2ccc(Cl)cc2)N2CCCCC2)cc1` (stereo not given) belongs -22.7%. With `NS(=O)(=O)c1ccc(CNC(=O)c2cccc(S(=O)(=O)N3CCc4ccccc43)c2)cc1` the figure was active: 41%; with `COc1ccccc1CNC(=O)Cn1nc(C)n2cccc2c1=O`, -1.06%.

Turning to `O=C(Cn1cnc2onc(-c3ccc(F)cc3)c2c1=O)N1CCN(c2ccc(F)cc2)CC1`, the inhibition was -3.55%. With `Clc1ccc(/C=N/Nc2nnc(-c3ncc[nH]3)c3ccccc23)cc1`, the inhibition is active: 70.4%. With `COc1cc(OC)cc(C(=O)NC2CCN(CCCOc3ccccc3)CC2)c1` the figure was active: 46.9%; with `COc1cccc(C2C(C(=O)Nc3ccccc3OC)=C(C)Nc3nc(-c4ccco4)nn32)c1` (stereo not given), -4.64%; with `COc1ccccc1CNC(=O)c1cnc2sc(N3CCCCC3)nn2c1=O`, 10.8%. To `Cc1ccccc1-c1nc(CS(=O)(=O)CC(=O)NCCCc2ccccc2)c(C)o1` belongs -4.71%. Consider `CCC(Sc1nnc2c3ccccc3n(CC)c2n1)C(=O)Nc1ccc(NC(C)=O)cc1` (stereo not given), for which the inhibition is -3.22%.

In the case of `COc1ccc(-n2nc(C(=O)NCCc3ccc(OC)c(OC)c3)c3c4ccccc4n(C)c3c2=O)cc1`, the inhibition worked out at 19.4%. To `CCCOc1cccc(C2c3c(oc4ccc(F)cc4c3=O)C(=O)N2CCc2ccc(OC)cc2)c1` (stereo not given) belongs -2.72%; to `O=C(Nc1onc2c1CCCC2)c1ccccc1`, -10.9%. As for `O=C(CN1C(=O)CCn2nc(-c3ccccc3)cc21)NCc1ccccc1`, the inhibition worked out at 3.03%. With `COc1cccc(CNC(=O)C(=O)NCC(c2ccco2)S(=O)(=O)c2ccccc2)c1` (stereo not given) the figure was 13.2%; with `Cc1ccc(Cc2c(C)nc3nc(SCC(=O)NCCC(C)C)nn3c2C)cc1`, 2.17%. To `Cc1nn(C)c(C)c1S(=O)(=O)N(CC(=O)Nc1ccc(F)cc1F)c1ccc(C(C)C)cc1` belongs 1.44%. With `COc1ccc(NC(=O)Cn2c(=O)n(-c3ccc(C)cc3)c(=O)c3c2c2cc(C)ccc2n3C)cc1` the figure was 19.1%; with `COCCNC(=O)C1CCN(C(=O)C2CC(=O)N(c3ccc(C)cc3)C2)CC1` (stereo not given), active: 30%. Turning to `Cc1ccc(CN2C(=O)SC(Nc3ccc(Cl)cc3)C2=O)cc1` (stereo not given), the inhibition was -5.45%. With `CC1CCN(c2nc3ccc(C(=O)NC(C)C)cc3s2)CC1` the figure was -6.4%; with `CCn1c(C(=O)NCc2ccccc2Cl)cc2sc(Cl)cc21`, 8.69%; with `NC(=O)CCN1CCN(CCOC2Cc3cc(Cl)ccc3Sc3ccccc32)CC1` (stereo not given), active: 93.9%. To `O=C(CCC(=O)N1Cc2ccccc2Oc2ncccc21)NCc1cccc(Cl)c1` belongs 0.145%; to `CC(Oc1ccccc1)C(=O)Nc1ccc(C(=O)OCc2cc(=O)n3nc(C4CC4)sc3n2)cc1` (stereo not given), 6.74%.
